Laboratory results from the supplement of paper PMC9446081.
Hit rate of the full screen: of about 39,000 compounds, about 220 (0.56%) showed activity. The list shows a part of the results.
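Note: static incubation at 37 °C against the wild-type strain, values averaged over two biological replicates.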

These compounds were tested on Escherichia coli K-12 BW25113 (assay: relative growth (OD600 normalised to plate interquartile mean) (fraction); higher = less growth inhibition, active = 0.2 or less). Details: 50 µM; LB; incubation time: overnight (16-24 h).
For CCOC(=O)[C@H]1C/C=C/C[C@H](C(=O)OCC)C(=O)O[C@H]2[C@@H](OC)O[C@H](CO)[C@@H](OC(=O)Nc3cccc(F)c3)[C@@H]2OC1=O, the relative growth was inactive: 1.03. COCC(=O)Nc1ccc2c(c1)C(=O)N(C)C[C@@H](OC)[C@@H](C)CN(C(=O)Cc1cccnc1)[C@@H](C)CO2 was tested, and the relative growth was inactive: 0.997. For C[C@@H]1CN([C@H](C)CO)C(=O)c2cc(NC(=O)Nc3cccc4ccccc34)ccc2O[C@@H](C)CCCCO[C@H]1CN(C)S(=O)(=O)c1cn(C)cn1, the relative growth was inactive: 1. COc1ccc(S(=O)(=O)N(C)C[C@H]2Oc3c(NC(=O)Nc4cccc5ccccc45)cccc3C(=O)N([C@H](C)CO)C[C@@H]2C)cc1 was tested, and the relative growth was inactive: 1.04. C[C@H](CO)N1C[C@H](C)[C@@H](CN(C)Cc2ccc(C(F)(F)F)cc2)Oc2ccc(NC(=O)Cc3ccccc3)cc2C1=O was tested, and the relative growth was inactive: 1.07. In the case of NS(=O)(=O)c1ccc(O)c([N+](=O)[O-])c1, the relative growth is reported as inactive: 0.992. C[C@@H]1CN([C@@H](C)CO)C(=O)Cc2cc(NC(=O)CCN3CCOCC3)ccc2O[C@H]1CN(C)Cc1ccc(C(=O)Nc2ccccc2N)cc1 was tested, and the relative growth was inactive: 0.974. With CNC[C@H]1OCCCC[C@H](C)Oc2ccc(NC(=O)CCCN(C)C)cc2C(=O)N([C@@H](C)CO)C[C@@H]1C the relative growth was inactive: 0.985. CCC(c1ccc(O)cc1)C(CC)c1ccc(O)cc1 (configuration not stated) was tested, and the relative growth was inactive: 0.716. O=C(CN1C(=O)CSC1=O)N1CCCC1 was tested, and the relative growth was inactive: 0.907. In the case of Cc1noc(C)c1S(=O)(=O)N(C)C[C@@H]1Oc2c(NC(=O)C3CCCCC3)cccc2C(=O)N([C@@H](C)CO)C[C@@H]1C, the relative growth is reported as inactive: 0.993. In the case of C[C@H](CO)N1C[C@H](C)[C@@H](CN(C)C(=O)Nc2cccc3ccccc23)OCCCC[C@H](C)Oc2ccc(NC(=O)Nc3ccc4c(c3)OCO4)cc2C1=O, the relative growth is reported as inactive: 1.03. In the case of CC(C)C(=O)NCc1nnnn1-c1ccccc1, the relative growth is reported as inactive: 0.992. With COC(=O)c1ccccc1N(C)S(C)(=O)=O the relative growth was inactive: 1.01. For Cc1noc(C)c1NC(=O)Nc1ccc2c(c1)CC(=O)N([C@H](C)CO)C[C@@H](C)[C@H](CN(C)Cc1ccc(-c3ccccc3)cc1)O2, the relative growth was inactive: 1.04. For C[C@@H]1CN([C@@H](C)CO)C(=O)c2cc(NC(=O)NC3CCCCC3)ccc2O[C@@H](C)CCCCO[C@H]1CN(C)CC1CC1, the relative growth was inactive: 1. For CC(C)=CCC/C(C)=C/CO, the relative growth was inactive: 0.962. For C[C@H](CO)N1C[C@H](C)[C@@H](CN(C)Cc2ccncc2)Oc2c(NS(=O)(=O)c3ccccc3)cccc2C1=O, the relative growth was inactive: 1. CCOC(=O)N[C@H]1CCS(=O)(=O)C1 was tested, and the relative growth was inactive: 0.986. In the case of O=C(C[C@H]1C=C[C@@H](NS(=O)(=O)c2ccc(F)cc2)[C@@H](CO)O1)N1CCC(Cc2ccccc2)CC1, the relative growth is reported as inactive: 1. With CCNC(=O)C[C@@H]1CC[C@H](NC(=O)C2CCOCC2)[C@@H](CO)O1 the relative growth was inactive: 1.01. C[C@H](CO)N1C[C@H](C)[C@@H](CN(C)S(=O)(=O)c2ccc(F)cc2)Oc2c(NS(=O)(=O)c3cn(C)cn3)cccc2C1=O was tested, and the relative growth was inactive: 0.99. COc1ccc(S(=O)(=O)Nc2ccc3c(c2)C(=O)N([C@H](C)CO)C[C@H](C)[C@@H](CN(C)Cc2ccccc2)OCCCC[C@H](C)O3)cc1 was tested, and the relative growth was inactive: 0.962. For C[C@@H]1CN([C@H](C)CO)C(=O)c2cccc(NS(=O)(=O)c3cn(C)cn3)c2O[C@@H]1CN(C)S(=O)(=O)c1ccccc1, the relative growth was inactive: 1.01. C[C@@H]1CCCCO[C@H](CN(C)C(=O)c2ccncc2)[C@@H](C)CN([C@@H](C)CO)C(=O)c2cc(NC(=O)C3CCCCC3)ccc2O1 was tested, and the relative growth was inactive: 0.967. For C[C@@H](O)C#Cc1ccc2c(c1)O[C@H](CN(C)C(=O)c1ccncc1)[C@@H](C)CN([C@@H](C)CO)S2(=O)=O, the relative growth was inactive: 0.987. In the case of CCS(=O)(=O)Nc1ccc2c(c1)C(=O)N(C)C[C@@H](OC)[C@@H](C)CN(CCC(F)(F)F)[C@H](C)CO2, the relative growth is reported as inactive: 0.983. For C[C@H](CO)N1C[C@H](C)[C@H](CN(C)C(=O)Nc2ccccc2)OCCCC[C@H](C)Oc2ccc(NS(=O)(=O)c3ccc(F)cc3)cc2C1=O, the relative growth was inactive: 1. In the case of Cc1ccc(S(=O)(=O)Nc2ccc3c(c2)CC(=O)N([C@H](C)CO)C[C@@H](C)[C@H](CN(C)S(C)(=O)=O)O3)cc1, the relative growth is reported as inactive: 1.02. With C[C@@H]1CN([C@H](C)CO)C(=O)c2cccc(NS(C)(=O)=O)c2O[C@@H]1CN(C)S(=O)(=O)c1ccc(F)cc1 the relative growth was inactive: 0.967. O=C(N[C@H]1CC[C@@H](CC(=O)N2CCOCC2)O[C@H]1CO)c1ccc2c(c1)OCO2 was tested, and the relative growth was inactive: 1.01. Cc1noc(C)c1NC(=O)Nc1ccc2c(c1)C(=O)N([C@H](C)CO)C[C@H](C)[C@H](CN(C)C(=O)c1ccccc1)OCCCC[C@H](C)O2 was tested, and the relative growth was inactive: 1.02. CC(C)CC#Cc1cnc2c(c1)C(=O)N([C@@H](C)CO)C[C@@H](C)[C@@H](CN(C)C(=O)c1ccc3c(c1)OCO3)O2 was tested, and the relative growth was inactive: 0.974. In the case of C[C@@H]1CCCCO[C@H](CN(C)C(=O)Nc2ccc(F)cc2)[C@@H](C)CN([C@H](C)CO)C(=O)c2cc(NC(=O)Nc3ccc4c(c3)OCO4)ccc2O1, the relative growth is reported as inactive: 0.991. With C[C@@H]1CN([C@@H](C)CO)C(=O)c2cc(NS(=O)(=O)c3ccc(F)cc3)ccc2O[C@@H](C)CCCCO[C@@H]1CN(C)C(=O)Nc1cccc2ccccc12 the relative growth was inactive: 1.03. With C[C@H](CO)N1C[C@H](C)[C@H](CN(C)Cc2ccc(Oc3ccccc3)cc2)Oc2c(NS(=O)(=O)c3cccs3)cccc2C1=O the relative growth was inactive: 0.941. With CC(C)NC(=O)N(C)C[C@@H]1Oc2ccc(NS(=O)(=O)c3cn(C)cn3)cc2CC(=O)N([C@@H](C)CO)C[C@@H]1C the relative growth was inactive: 0.982. COc1ccc(S(=O)(=O)N(C)C[C@@H]2Oc3cc(C4=CCCC4)ccc3S(=O)(=O)N([C@H](C)CO)C[C@@H]2C)cc1 was tested, and the relative growth was inactive: 1.01. With Cc1cccc(S(=O)(=O)N2C[C@@H](O)COC[C@H]3O[C@@H](CC(=O)NCc4ccncn4)CC[C@@H]32)c1 the relative growth was inactive: 1.02. O=C(O)CCCCCCC(=O)Nc1ccc([C@H]2O[C@@H](CSc3nc(-c4ccccc4)c(-c4ccccc4)o3)C[C@H](c3ccc([N+](=O)[O-])cc3)O2)cc1 was tested, and the relative growth was inactive: 1.03. With Cc1noc(C)c1NC(=O)N[C@H]1CC[C@@H](CC(=O)N2CCN(C)CC2)O[C@@H]1CO the relative growth was inactive: 0.991. CNC[C@H]1Oc2ccc(NC(=O)Cn3cnnn3)cc2CC(=O)N([C@@H](C)CO)C[C@H]1C was tested, and the relative growth was inactive: 1. In the case of N[C@H](C(=O)O)c1ccc(C(=O)O)c(O)c1, the relative growth is reported as inactive: 0.979. For CC(=O)OC1CC2C(C)(C)C(=O)C3OC3C2(C)C2CCC3(C)C(c4ccoc4)OC(=O)C4OC43C12C (configuration not stated), the relative growth was inactive: 1.07. For C[C@@H]1CCCCO[C@@H](CN(C)Cc2ccc(Cl)c(Cl)c2)[C@@H](C)CN([C@H](C)CO)C(=O)c2cc(NS(C)(=O)=O)ccc2O1, the relative growth was inactive: 0.971. C[C@H]1CN([C@@H](C)CO)C(=O)c2cc(NC(=O)CCN3CCOCC3)ccc2O[C@H]1CN(C)CC1CCCCC1 was tested, and the relative growth was inactive: 0.967. With Cn1ccnc1C(=O)N[C@@H]1CN(C(N)=O)[C@H]2CCCO[C@@H]12 the relative growth was inactive: 1.02. O=C(NCCO)c1nc(NCCO)c2ccccc2n1 was tested, and the relative growth was inactive: 0.959. With C[C@H](NC(=O)C[C@@H]1C[C@@H]2c3cc(NC(=O)Nc4ccc(C(F)(F)F)cc4)ccc3O[C@@H]2[C@H](CO)O1)c1ccccc1 the relative growth was inactive: 0.994. C[C@@H](O)c1nnc(N)[nH]1 was tested, and the relative growth was inactive: 1.02. In the case of C[C@H]1CCCCO[C@@H](CN(C)S(=O)(=O)c2ccccc2)[C@@H](C)CN([C@@H](C)CO)C(=O)c2cc(NS(=O)(=O)c3cn(C)cn3)ccc2O1, the relative growth is reported as inactive: 0.96. CCOC[C@@H](O)CS(=O)(=O)c1ccccn1 was tested, and the relative growth was inactive: 1.03. C[C@@H]1CCCCO[C@H](CN(C)C(=O)Nc2ccc(F)cc2)[C@@H](C)CN([C@H](C)CO)C(=O)c2cc(NC(=O)NC3CCCCC3)ccc2O1 was tested, and the relative growth was inactive: 1. C[C@H](CO)N1C[C@H](C)[C@@H](CN(C)S(=O)(=O)c2cn(C)cn2)Oc2c(NC(=O)CCC(F)(F)F)cccc2C1=O was tested, and the relative growth was inactive: 1.01. In the case of C[C@@H]1CN([C@H](C)CO)S(=O)(=O)c2ccc(C#Cc3ccccc3)cc2O[C@H]1CN(C)C(=O)Cc1ccccn1, the relative growth is reported as inactive: 1.01. With Cc1noc(C)c1NC(=O)Nc1ccc2c(c1)C(=O)N([C@H](C)CO)C[C@H](C)[C@@H](CN(C)Cc1ccc(Cl)c(Cl)c1)O2 the relative growth was inactive: 0.989. In the case of COc1ccc(S(=O)(=O)Nc2cccc3c2O[C@@H](CN(C)C(=O)NC(C)C)[C@H](C)CN([C@H](C)CO)C3=O)cc1, the relative growth is reported as inactive: 0.978. COc1ccccc1CNC(=O)C[C@@H]1C[C@@H]2c3cc(NS(=O)(=O)c4ccc(F)cc4)ccc3O[C@@H]2[C@@H](CO)O1 was tested, and the relative growth was inactive: 1. For CN1CCN([C@H](CNC(=O)C(=O)NCCN2CCOCC2)c2ccc(N(C)C)cc2)CC1, the relative growth was inactive: 0.971. For C[C@@H]1CCCCO[C@@H](CN(C)Cc2ccncc2)[C@@H](C)CN([C@@H](C)CO)C(=O)c2cc(NC(=O)Nc3ccccc3)ccc2O1, the relative growth was inactive: 1.02. In the case of Cc1ccc(OC(=O)N(C)C[C@@H]2OCc3ccccc3-c3ccccc3C(=O)N([C@H](C)CO)C[C@H]2C)cc1, the relative growth is reported as inactive: 1.02. In the case of C=CCC[C@@H](Cc1ccc(F)cc1)C(=O)O[C@@H](CNC(=O)[C@@H](CC=C)CC(=O)N(CCO)Cc1ccccc1)c1ccccc1, the relative growth is reported as inactive: 1.12.
